These are yes or no findings as the source states them, for the method shown. Binding seen in cells or lysates may run through a third protein. Some binding calls cover weakened binding; strength is not graded here. For part of these data: Where a sequence is shown, tags or fusion partners need not be part of it.
Tests used:
[1] = biological target: human NIPBL, endogenous (human (endogenous in TK6)) (UniProt Q6KC79); test: co-IP; IP of endogenous NIPBL (anti-NIPBL A301-779A, Dynabeads Protein A) from TK6 lysates with benzonase; lysis 150 mM NaCl, washes 200 mM NaCl, 0.5% NP-40; also after nocodazole synchronisation and release of TP53 knockout TK6 cells (asynchronous, G1, S, G2/M)
[2] = biological target: GST–Pol30 (yeast PCNA fused to GST) (S. cerevisiae) (UniProt P15873); test: pull-down; purified recombinant GST–Pol30 as bait, whole-cell extracts of yeast expressing HF-tagged Scc2^E822K from pADH1; only the target purified
[3] = biological target: human NIPBL, endogenous (human (endogenous in TK6)), Q6KC79; test: co-IP; IP of endogenous NIPBL (anti-NIPBL A301-779A, Dynabeads Protein A) from TK6 lysates with benzonase; lysis 150 mM NaCl, washes 200 mM NaCl, 0.5% NP-40; also after nocodazole synchronisation and release of TP53 knockout TK6 cells (asynchronous, G1, S, G2/M); conditions: remark: other sources report otherwise

The chains behind the UniProt entries cited, without tags or fusion partners.
UniProt Q6KC79: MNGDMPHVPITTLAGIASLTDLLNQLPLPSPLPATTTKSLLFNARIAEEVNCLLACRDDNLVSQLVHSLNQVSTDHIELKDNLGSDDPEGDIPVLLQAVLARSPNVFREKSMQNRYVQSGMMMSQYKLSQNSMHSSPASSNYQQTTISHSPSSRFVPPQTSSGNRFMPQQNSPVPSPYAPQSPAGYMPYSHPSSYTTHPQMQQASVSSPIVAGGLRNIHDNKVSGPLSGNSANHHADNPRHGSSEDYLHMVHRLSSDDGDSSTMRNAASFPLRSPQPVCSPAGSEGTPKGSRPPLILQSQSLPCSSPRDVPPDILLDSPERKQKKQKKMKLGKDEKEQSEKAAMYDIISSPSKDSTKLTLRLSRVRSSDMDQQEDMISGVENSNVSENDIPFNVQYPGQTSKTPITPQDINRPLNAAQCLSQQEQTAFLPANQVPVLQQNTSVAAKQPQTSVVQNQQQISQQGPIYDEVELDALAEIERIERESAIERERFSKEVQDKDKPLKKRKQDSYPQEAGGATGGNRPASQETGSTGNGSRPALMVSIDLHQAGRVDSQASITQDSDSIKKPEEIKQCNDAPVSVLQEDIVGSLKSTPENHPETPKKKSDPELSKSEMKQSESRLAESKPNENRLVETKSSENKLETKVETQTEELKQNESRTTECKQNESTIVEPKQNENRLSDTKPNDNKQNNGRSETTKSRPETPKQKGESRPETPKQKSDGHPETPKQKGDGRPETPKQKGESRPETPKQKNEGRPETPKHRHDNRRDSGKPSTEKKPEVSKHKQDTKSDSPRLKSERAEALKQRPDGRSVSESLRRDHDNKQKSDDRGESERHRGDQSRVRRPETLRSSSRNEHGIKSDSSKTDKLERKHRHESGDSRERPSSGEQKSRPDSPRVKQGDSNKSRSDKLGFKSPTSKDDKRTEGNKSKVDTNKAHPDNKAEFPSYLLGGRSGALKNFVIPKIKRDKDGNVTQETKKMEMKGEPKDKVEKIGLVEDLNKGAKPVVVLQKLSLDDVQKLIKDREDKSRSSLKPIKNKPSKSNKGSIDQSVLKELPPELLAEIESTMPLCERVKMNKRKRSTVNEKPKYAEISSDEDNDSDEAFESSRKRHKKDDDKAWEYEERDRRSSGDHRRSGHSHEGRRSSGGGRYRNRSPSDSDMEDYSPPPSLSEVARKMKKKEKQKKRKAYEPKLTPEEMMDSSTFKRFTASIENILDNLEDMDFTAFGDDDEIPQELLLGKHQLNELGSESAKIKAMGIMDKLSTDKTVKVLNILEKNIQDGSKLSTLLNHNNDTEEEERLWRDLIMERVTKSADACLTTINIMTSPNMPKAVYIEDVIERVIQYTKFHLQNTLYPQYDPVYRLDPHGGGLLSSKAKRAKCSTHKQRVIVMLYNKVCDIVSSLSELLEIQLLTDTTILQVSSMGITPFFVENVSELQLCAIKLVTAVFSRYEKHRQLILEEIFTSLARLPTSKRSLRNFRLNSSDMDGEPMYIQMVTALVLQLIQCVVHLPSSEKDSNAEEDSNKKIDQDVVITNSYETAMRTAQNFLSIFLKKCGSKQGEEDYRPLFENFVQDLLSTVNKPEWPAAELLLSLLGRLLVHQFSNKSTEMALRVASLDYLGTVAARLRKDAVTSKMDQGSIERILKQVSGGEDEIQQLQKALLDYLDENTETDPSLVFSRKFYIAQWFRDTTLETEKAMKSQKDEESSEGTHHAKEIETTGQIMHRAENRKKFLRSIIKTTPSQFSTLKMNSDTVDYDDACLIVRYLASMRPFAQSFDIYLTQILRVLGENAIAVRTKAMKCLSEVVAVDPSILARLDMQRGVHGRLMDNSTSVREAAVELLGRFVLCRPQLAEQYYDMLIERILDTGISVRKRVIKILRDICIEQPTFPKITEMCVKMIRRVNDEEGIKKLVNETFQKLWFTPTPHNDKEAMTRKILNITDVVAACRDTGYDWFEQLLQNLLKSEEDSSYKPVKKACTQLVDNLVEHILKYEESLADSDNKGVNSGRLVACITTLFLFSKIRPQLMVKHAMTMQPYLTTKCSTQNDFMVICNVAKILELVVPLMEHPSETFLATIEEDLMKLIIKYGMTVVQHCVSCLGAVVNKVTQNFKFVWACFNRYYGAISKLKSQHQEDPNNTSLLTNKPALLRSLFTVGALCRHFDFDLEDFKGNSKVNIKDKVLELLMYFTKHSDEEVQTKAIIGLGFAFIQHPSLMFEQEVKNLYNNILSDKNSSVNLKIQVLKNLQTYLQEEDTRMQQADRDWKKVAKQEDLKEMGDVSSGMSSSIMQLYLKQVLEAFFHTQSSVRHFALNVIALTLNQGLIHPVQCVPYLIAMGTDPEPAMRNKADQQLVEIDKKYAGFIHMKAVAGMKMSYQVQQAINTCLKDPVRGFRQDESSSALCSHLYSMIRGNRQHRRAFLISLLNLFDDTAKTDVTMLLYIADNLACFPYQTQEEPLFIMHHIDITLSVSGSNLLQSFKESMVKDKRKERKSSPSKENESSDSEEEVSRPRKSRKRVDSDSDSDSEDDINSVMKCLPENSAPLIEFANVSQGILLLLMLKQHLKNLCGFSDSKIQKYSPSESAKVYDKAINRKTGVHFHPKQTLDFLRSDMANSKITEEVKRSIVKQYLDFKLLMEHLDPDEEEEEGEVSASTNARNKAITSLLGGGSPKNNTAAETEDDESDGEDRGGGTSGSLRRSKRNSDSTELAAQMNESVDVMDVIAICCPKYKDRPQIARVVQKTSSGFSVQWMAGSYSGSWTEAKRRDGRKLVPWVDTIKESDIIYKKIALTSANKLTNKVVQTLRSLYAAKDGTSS
UniProt P15873: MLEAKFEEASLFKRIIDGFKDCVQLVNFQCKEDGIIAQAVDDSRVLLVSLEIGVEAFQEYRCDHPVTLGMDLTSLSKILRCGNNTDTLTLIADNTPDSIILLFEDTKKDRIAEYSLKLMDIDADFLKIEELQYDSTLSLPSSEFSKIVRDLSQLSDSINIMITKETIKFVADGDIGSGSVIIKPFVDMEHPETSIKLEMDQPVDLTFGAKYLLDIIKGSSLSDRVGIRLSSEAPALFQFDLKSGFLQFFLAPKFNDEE

B1: human MAU2, endogenous (protein, UniProt Q9Y6X3 1-613)
chain: MAAQAAAAAQAAAAQAAQAEAADSWYLALLGFAEHFRTSSPPKIRLCVHCLQAVFPFKPPQRIEARTHLQLGSVLYHHTKNSEQARSHLEKAWLISQQIPQFEDVKFEAASLLSELYCQENSVDAAKPLLRKAIQISQQTPYWHCRLLFQLAQLHTLEKDLVSACDLLGVGAEYARVVGSEYTRALFLLSKGMLLLMERKLQEVHPLLTLCGQIVENWQGNPIQKESLRVFFLVLQVTHYLDAGQVKSVKPCLKQLQQCIQTISTLHDDEILPSNPADLFHWLPKEHMCVLVYLVTVMHSMQAGYLEKAQKYTDKALMQLEKLKMLDCSPILSSFQVILLEHIIMCRLVTGHKATALQEISQVCQLCQQSPRLFSNHAAQLHTLLGLYCVSVNCMDNAEAQFTTALRLTNHQELWAFIVTNLASVYIREGNRHQEVLYSLLERINPDHSFPVSSHCLRAAAFYVRGLFSFFQGRYNEAKRFLRETLKMSNAEDLNRLTACSLVLLGHIFYVLGNHRESNNMVVPAMQLASKIPDMSVQLWSSALLRDLNKACGNAMDAHEAAQMHQNFSQQLLQDHIEACSLPEHNLITWTDGPPPVQFQAQNGPNTSLASLL
[1]
  binding: binds

B2: N-terminally 7His8Flag (HF)-tagged Scc2^E822K (protein, UniProt Q04002 1-1493)
chain: MSYPGKDKNIPGRIIEALEDLPLSYLVPKDGLAALVNAPMRVSLPFDKTIFTSADDGRDVNINVLGTANSTTSSIKNEAEKERLVFKRPSNFTSSANSVDYVPTNFLEGLSPLAQSVLSTHKGLNDSINIEKKSEIVSRPEAKHKLESVTSNAGNLSFNDNSSNKKTKTSTGVTMTQANLAEQYLNDLKNILDIVGFDQNSAEIGNIEYWLQLPNKKFVLTTNCLTKLQMTIKNITDNPQLSNSIEITWLLRLLDVMVCNIKFSKSSLKMGLDDSMLRYIALLSTIVLFNIFLLGKNDSNLHRESYIMEPVNFLSDLIESLKILTIEYGSLKIEFDTFQEALELLPKYIRNGPFLDDNVTAKLVYIFSDLLMNNDIEATTNIQFQSFWDNVKRISSDILVSLFGSFDQQRGFIIEELLSHIEKLPTKRIQKKLRKVGNQNIYITDFTFTLMSMLENINCYSFCNQMKDIAPENIDLLKNEYKKQEEFLFNIVEHINDTILERFFKNPSALRYVIDNFVQDLLLLISSPQWPVTEKILSSLLKRLLSVYSPSMQVSANIETICLQLIGNIGSTIFDIKCSTRDHEDNNLIKMINYPETLPHFFKSFEECIAYNETIKCRRSATRFLWNLRLGTILILEEYTKDAKEQIITVDNELKKILEQIKDGGLGPELENREADFSTIKLDYFSILHAFELLNLYDPYLKLILSLLAKDKIKLRSTAIKCLSMLASKDKVILSNPMVKETIHRRLNDSSASVKDAILDLVSINSSYFEFYQQINNNYNDDSIMVRKHVLRINEKMYDETNDIVTKVYVIARILMKIEDEKDNIIDMARLILLNRWILKVHEVLDQPEKLKEISSSVLLVMSRVAIMNEKCSQLFDLFLNFYLLNKEAHSKEAYDKITHVLTILTDFLVQKIVELNSDDTNEKNSIVDKQNFLNLLAKFADSTVSFLTKDHITALYPYMVSDEKSDFHYYILQVFRCTFEKLANFKQKFLYDLETTLLSRLPKMNVREIDEAMPLIWSVATHRHDTARVAKACSSCLSHLHPYINKANNEEAAIVVDGKLQRLIYLSTGFARFCFPKPSNDKIAFLQEGETLYEHITKCLLVLSKDKITHVIRRVAVKNLTKLCGNHPKLFNSRHVLHLLDKEFQSDQLDIKLVILESLYDLFLLEERKSVRNTGVNSTLSSNSILKKKLLKTNRVEFANDGVCSALATRFLDNILQLCLLRDLKNSLVAIRLLKLILKFGYTNPSHSIPTVIALFASTSQYIRHVAYELLEDLFEKYETLVFSSLSRGVTKAIHYSIHTDEKYYYKHDHFLSLLEKLCGTGKKNGPKFFKVLKRIMQSYLDDITDLTSTNSSVQKSIFVLCTNISNITFVSQYDLVSLLKTIDLTTDRLKEVIMDEIGDNVSSLSVSEEKLSGIILIQLSLQDLGTYLLHLYGLRDDVLLLDIVEESELKNKQLPAKKPDISKFSAQLENIEQYSSNGKLLTYFRKHVKDT
[2]
  binding: binds

B3: human SMC3, endogenous, Q9UQE7 1-1217 (protein)
chain: MYIKQVIIQGFRSYRDQTIVDPFSSKHNVIVGRNGSGKSNFFYAIQFVLSDEFSHLRPEQRLALLHEGTGPRVISAFVEIIFDNSDNRLPIDKEEVSLRRVIGAKKDQYFLDKKMVTKNDVMNLLESAGFSRSNPYYIVKQGKINQMATAPDSQRLKLLREVAGTRVYDERKEESISLMKETEGKREKINELLKYIEERLHTLEEEKEELAQYQKWDKMRRALEYTIYNQELNETRAKLDELSAKRETSGEKSRQLRDAQQDARDKMEDIERQVRELKTKISAMKEEKEQLSAERQEQIKQRTKLELKAKDLQDELAGNSEQRKRLLKERQKLLEKIEEKQKELAETEPKFNSVKEKEERGIARLAQATQERTDLYAKQGRGSQFTSKEERDKWIKKELKSLDQAINDKKRQIAAIHKDLEDTEANKEKNLEQYNKLDQDLNEVKARVEELDRKYYEVKNKKDELQSERNYLWREENAEQQALAAKREDLEKKQQLLRAATGKAILNGIDSINKVLDHFRRKGINQHVQNGYHGIVMNNFECEPAFYTCVEVTAGNRLFYHIVDSDEVSTKILMEFNKMNLPGEVTFLPLNKLDVRDTAYPETNDAIPMISKLRYNPRFDKAFKHVFGKTLICRSMEVSTQLARAFTMDCITLEGDQVSHRGALTGGYYDTRKSRLELQKDVRKAEEELGELEAKLNENLRRNIERINNEIDQLMNQMQQIETQQRKFKASRDSILSEMKMLKEKRQQSEKTFMPKQRSLQSLEASLHAMESTRESLKAELGTDLLSQLSLEDQKRVDALNDEIRQLQQENRQLLNERIKLEGIITRVETYLNENLRKRLDQVEQELNELRETEGGTVLTATTSELEAINKRVKDTMARSEDLDNSIDKTEAGIKELQKSMERWKNMEKEHMDAINHDTKELEKMTNRQGMLLKKKEECMKKIRELGSLPQEAFEKYQTLSLKQLFRKLEQCNTELKKYSHVNKKALDQFVNFSEQKEKLIKRQEELDRGYKSIMELMNVLELRKYEAIQLTFKQVSKNFSEVFQKLVPGGKATLVMKKGDVEGSQSQDEGEGSGESERGSGSQSSVPSVDQFTGVGIRVSFTGKQGEMREMQQLSGGQKSLVALALIFAIQKCDPAPFYLFDEIDQALDAQHRKAVSDMIMELAVHAQFITTTFRPELLESADKFYGVKFRNKVSHIDVITAEMAKDFVEDDTTHG
[3]
  binding: binds

Source: PMC10497406
